A lower IC50 marks a more sensitive line; fits outside the tested doses are given as limits. AUC, from the same fit, is the share of area under the viability curve across the 256-fold dose range: 1 means no effect, lower means more sensitive. For some of these results: Any top dose called inferred was calculated from the reported fits. For some of these results: Where an entry number is given, a second screen of the drug exists; the two often differ.
Legend:
Test in all cases: Viability of human cancer cell lines after 72 h of drug (GDSC screen)
Bicalutamide = compound: CC(O)(CS(=O)(=O)c1ccc(F)cc1)C(=O)Nc1ccc(C#N)c(C(F)(F)F)c1 [Bicalutamide]; conditions: top dose inferred
Experimental: (§1)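 Human cancer cell lines in 384-well plates, medium with 10% serum, drug for 72 h over a 256-fold dose range (nine 2-fold or five 4-fold steps up to the top dose). Adherent lines were fixed and stained with the nucleic acid dye Syto60, suspension lines read with resazurin; signal relative to control wells, capped at 0 and 100%. One two-parameter sigmoid per drug and line, fitted in a mixed model over all curves with the slope shared within a line.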

MP470 = compound: S=C(NCc1ccc2c(c1)OCO2)N1CCN(c2ncnc3c2oc2ccccc23)CC1 [MP470]; conditions: top dose 20 µM; top dose inferred
Experimental: as §1

AUY922 = compound: CCNC(=O)c1noc(-c2cc(C(C)C)c(O)cc2O)c1-c1ccc(CN2CCOCC2)cc1 [AUY922]; conditions: top dose 0.256 µM; top dose inferred
Experimental: as §1

GNF-2 = compound: NC(=O)c1cccc(-c2cc(Nc3ccc(OC(F)(F)F)cc3)ncn2)c1 [GNF-2]; conditions: top dose 1.28 µM; top dose inferred
Experimental: as §1

Gemcitabine = compound: Nc1ccn([C@@H]2O[C@H](CO)[C@@H](O)C2(F)F)c(=O)n1 [Gemcitabine]; conditions: top dose 1.024 µM
Experimental: as §1

LFM-A13 = compound: C/C(O)=C(\C#N)C(=O)Nc1cc(Br)ccc1Br [LFM-A13]; conditions: top dose 16 µM; top dose inferred
Experimental: as §1

TW-37 = compound: CC(C)c1ccccc1Cc1cc(C(=O)Nc2ccc(S(=O)(=O)c3ccccc3C(C)(C)C)cc2)c(O)c(O)c1O [TW-37]; conditions: top dose 5 µM
Experimental: as §1

Nilotinib = compound: Cc1cn(-c2cc(NC(=O)c3ccc(C)c(Nc4nccc(-c5cccnc5)n4)c3)cc(C(F)(F)F)c2)cn1 [Nilotinib]; conditions: top dose 2 µM
Experimental: as §1

T0901317 = compound: O=S(=O)(c1ccccc1)N(CC(F)(F)F)c1ccc(C(O)(C(F)(F)F)C(F)(F)F)cc1 [T0901317]; conditions: top dose 10.24 µM; top dose inferred
Experimental: as §1

KIN001-270 = compound: Cc1ccc(Nc2cc(-c3cccc(N4C(=O)c5ccccc5C4=O)c3)ncn2)cc1NS(C)(=O)=O [KIN001-270]; conditions: top dose 20 µM; top dose inferred
Experimental: as §1

[1] = top dose 1.024 µM, screen: GDSC drug entry 150
[2] = top dose 10 µM, screen: GDSC drug entry 1502

Cell Line	AUC (Bicalutamide; [1])	IC50 (Bicalutamide; [1])	AUC (Bicalutamide; [2])	IC50 (Bicalutamide; [2])	AUC (MP470)	IC50 (MP470)	AUC (AUY922)	IC50 (AUY922)	AUC (GNF-2)	IC50 (GNF-2)	AUC (Gemcitabine)	IC50 (Gemcitabine)	AUC (LFM-A13)	IC50 (LFM-A13)	AUC (TW-37)	IC50 (TW-37)	AUC (Nilotinib)	IC50 (Nilotinib)	AUC (T0901317)	IC50 (T0901317)	AUC (KIN001-270)	IC50 (KIN001-270)
Ramos-2G6-4C10 (Burkitt lymphoma, suspension)	0.99	> 1.02 µM	0.989	> 10 µM	0.901	19.3 µM	0.623	0.0331 µM	0.989	> 1.28 µM	0.79	0.384 µM	0.985	> 16 µM	0.554	0.429 µM	0.882	1.59 µM	0.946	> 10.2 µM	0.969	> 20 µM
SK-MM-2 (myeloma, suspension)	0.986	> 1.02 µM			0.808	10.9 µM	0.649	0.0422 µM	0.987	> 1.28 µM	0.598	0.121 µM	0.98	> 16 µM	0.771	2 µM	0.987	> 2 µM	0.927	> 10.2 µM	0.9	> 20 µM
CL-11 (large intestine, adherent)	0.983	> 1.02 µM	0.969	> 10 µM	0.892	> 20 µM	0.948	> 0.256 µM	0.987	> 1.28 µM	0.969	> 1.02 µM	0.987	> 16 µM	0.86	> 5 µM	0.954	> 2 µM	0.971	> 10.2 µM	0.984	> 20 µM
SK-MEL-1 (melanoma, suspension)	0.993	> 1.02 µM	0.993	> 10 µM	0.893	18.2 µM	0.947	> 0.256 µM	0.988	> 1.28 µM	0.979	> 1.02 µM	0.993	> 16 µM	0.881	4.02 µM	0.981	> 2 µM	0.992	> 10.2 µM	0.986	> 20 µM
NCI-H1838 (lung adenocarcinoma, adherent)	0.986	> 1.02 µM	0.985	> 10 µM	0.968	> 20 µM	0.979	> 0.256 µM	0.982	> 1.28 µM	0.987	> 1.02 µM	0.985	> 16 µM	0.736	1.73 µM	0.986	> 2 µM	0.975	> 10.2 µM	0.979	> 20 µM
TE-12 (oesophagus, suspension)	0.983	> 1.02 µM	0.974	> 10 µM	0.889	> 20 µM	0.467	0.0128 µM	0.95	> 1.28 µM	0.878	> 1.02 µM	0.953	> 16 µM	0.469	0.253 µM	0.982	> 2 µM	0.951	> 10.2 µM	0.959	> 20 µM
RCC10RGB (kidney, adherent)	0.963	> 1.02 µM	0.952	> 10 µM	0.92	> 20 µM	0.848	> 0.256 µM	0.885	> 1.28 µM	0.638	0.223 µM	0.855	> 16 µM	0.873	> 5 µM	0.964	> 2 µM	0.966	> 10.2 µM	0.955	> 20 µM
JSC-1 (B-cell lymphoma, suspension)	0.987	> 1.02 µM	0.985	> 10 µM	0.801	9.63 µM	0.487	0.0148 µM	0.987	> 1.28 µM	0.058	< 0.004 µM	0.98	> 16 µM	0.675	0.956 µM	0.987	> 2 µM	0.916	> 10.2 µM	0.904	> 20 µM
EW-3 (Ewing sarcoma, adherent)	0.983	> 1.02 µM	0.965	> 10 µM	0.894	> 20 µM	0.821	0.176 µM	0.984	> 1.28 µM	0.693	0.243 µM	0.973	> 16 µM	0.692	1.18 µM	0.98	> 2 µM	0.984	> 10.2 µM	0.971	> 20 µM
L-1236 (Hodgkin lymphoma, suspension)	0.992	> 1.02 µM	0.992	> 10 µM	0.946	> 20 µM	0.799	0.102 µM	0.985	> 1.28 µM	0.417	0.0393 µM	0.992	> 16 µM	0.397	0.171 µM	0.992	> 2 µM	0.99	> 10.2 µM	0.988	> 20 µM
SHP-77 (small cell lung carcinoma, semi-adherent)	0.992	> 1.02 µM	0.991	> 10 µM	0.323	0.427 µM	0.817	0.124 µM	0.991	> 1.28 µM	0.914	> 1.02 µM	0.991	> 16 µM	0.593	0.545 µM	0.991	> 2 µM	0.968	> 10.2 µM	0.977	> 20 µM
RH-1 (rhabdomyosarcoma, adherent)	0.991	> 1.02 µM	0.962	> 10 µM	0.864	13 µM	0.691	0.0494 µM	0.991	> 1.28 µM	0.113	0.00502 µM	0.984	> 16 µM	0.465	0.255 µM	0.972	> 2 µM	0.972	> 10.2 µM	0.876	14.3 µM

— the supplement of paper PMC4967469
